Measurements from the supplement of paper PMC10126150.
Values marked as one replicate rest on one cluster of the flow cell; about a third of the high ones do not repeat.

Tested on: ATP
Assay: switch fluorescence ratio, 500 uM ATP over buffer (Cy3 cluster intensity, sum of 5 cycles each) (fold (ratio)); higher = stronger signal-on switching upon ATP binding; sequences stand for … in TCGTCGGCAGCGTCAGATGTGTATAAGAGACAGTTTTTTTTTTTTTTTTTTTTTTTTT…TC
Settings: aptamer strand: ATP DNA aptamer (quencher-CACCTGGGGGAGTATTGCGGAGGAAGG + anchor), 100 nM annealed; ATP concentration: 500 uM; one replicate
Outline: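 Clusters carrying Cy3-labelled switching strands on a modified Illumina MiSeq flow-cell were annealed to 100 nM quencher-labelled ATP aptamer and imaged in selection buffer. They were imaged again after 15 min with 500 uM ATP at 22 °C, over five buffer/ATP cycles with NaOH stripping and re-annealing in between. For each cluster, the fluorescence ratio is the summed Cy3 intensity of the target cycles divided by that of the buffer cycles, averaged per switch-domain sequence. Clusters outside 100-1000 RFU were left out.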
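Further: ATP exposure 15 min at 22 °C before imaging.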

Row | Sequence | switch fluorescence ratio
1 | GTTTTCCAGG | 1.2
2 | CCCTTAGCGG | 1.04
3 | TAAGACCGAG | 0.985
4 | TCTTGATTTA | 1.02
5 | TGCCCCCATT | 0.945
6 | CTTAATAAAG | 0.969
7 | TTTACCAAGA | 1
8 | AGGTCAGGGC | 1.03
9 | CCTAGCTAAA | 1.33
10 | CTATACAAAA | 0.979
11 | TTGCCTTTAG | 0.974
12 | CGTTTCGGCC | 0.992
13 | AGGCATACCA | 1.02
14 | GAGTTGAACG | 0.944
15 | TTTTGCGTTG | 1.02
16 | TCTACTTCAT | 1.01
17 | CTCTGGGGGT | 0.977
18 | TCCCGGAATG | 1.66
19 | CTACGTCTCA | 1.08
20 | AGGTGGGTTC | 0.985
21 | TTTGAGGTTA | 1.05
22 | TGGGTACTTG | 1.01
23 | TGGACCCCCT | 1.36
24 | AAGTAAGCTC | 0.978
25 | TGATATGAGC | 0.946

Row | Sequence | switch fluorescence ratio
26 | TATTCGGGCT | 0.993
27 | TCTGCTTTGC | 1.07
28 | ATTTTTGCAC | 1
29 | TGCACATATC | 1.63
30 | TTGCATGTCG | 1.02
31 | ACCCGATAGA | 1.04
32 | AGACGTGCTC | 1
33 | CGGCACATTG | 0.995
34 | GGTCAAGTAT | 0.973
35 | TGGGCCCTGG | 1.01
36 | GCTGGTAACG | 0.974
37 | TTAAGGATGC | 1.08
38 | GGGTTCGCAC | 1.02
39 | TTCTTCCCG | 1.58
40 | CAGGGGGCTC | 0.989
41 | TTGAGGAAAT | 1
42 | ACACACAGCT | 1.28
43 | CACCGCACCT | 1.98
44 | AGTTAGACCC | 0.992
45 | CCTCGATGCT | 1.41
46 | GCTCGTAAAC | 1.82
47 | GCTACACGGT | 1.03
48 | TAAACGTATC | 1.13
49 | AGTAGTGTAT | 0.999
50 | ATGAACTCTA | 1.05

Row | Sequence | switch fluorescence ratio
51 | CAGACGTCTG | 1.01
52 | AAGTTCACCG | 1.02
53 | ATCGACGTAG | 0.994
54 | CTCTTGAAGT | 0.996
55 | GCTAATTTG | 0.974
56 | GTTTGGCGTT | 0.988
57 | CATTAGAGT | 1.01
58 | GTAAGGGGTA | 0.976
59 | TTCTGTTTGA | 1.04
60 | AAAAAGTGTG | 0.994
61 | TCCCTATGTC | 1.05
62 | CACCATTAGA | 0.981
63 | CCGACCCTCA | 2.31
64 | GAGCGGTAGA | 0.974
65 | GTTATGACGT | 0.988
66 | CACAGGGACG | 0.997
67 | GGCATTTTCT | 0.987
68 | TTTGCCTGTT | 1.11
69 | AGCGGGTCAC | 0.99
70 | TTCTATGGCC | 1.03
71 | AACAGCCTGT | 1
72 | CCTCGAGGGA | 1.03
73 | TTCATCTCTT | 1.01
74 | ATGGCGGGAG | 0.975
75 | CACTTATCTA | 1.01

Row | Sequence | switch fluorescence ratio
76 | CGTAAAGAGC | 0.985
77 | AGATAGCAAG | 1.05
78 | TTGAGCTGCA | 1.02
79 | ACTTTTTATT | 1.02
80 | GGCGATATTG | 0.977
81 | GCGACACGAA | 1.13
82 | TATAGTTCTC | 0.969
83 | TCCGAGGCTT | 1.1
84 | AAGCAGGTGA | 1.38
85 | GTGGGGGCCA | 1
86 | AGAATGGTTG | 0.948
87 | TGAGGCAACT | 1.1
88 | AATATGGGAA | 1.04
89 | AGGACACCCA | 1.2
90 | AACTAATTCG | 0.997
91 | CGTTTACATT | 0.97
92 | TAACTTGCCA | 1
93 | CGAAAGGAGT | 1.03
94 | TTGTCTGTGC | 1.05
95 | CAATATAATG | 1.05
96 | TTTAAACTCA | 1.04
97 | TTTCAAGCGA | 1.09
98 | AAAAAGGCTT | 1.06
99 | ACTGAGCCAG | 1.04
100 | GTTGAGGCGG | 1

Row | Sequence | switch fluorescence ratio
101 | GGCGCTACGT | 1.13
102 | GTGTTTG | 0.961
103 | ACAATGGGAC | 1.05
104 | TTTGGAAATC | 0.942
105 | TGAATAAACC | 1.06
106 | TCATTCTGTG | 0.962
107 | CATGCAGATG | 0.969
108 | ATGTTTCAGC | 1.01
109 | GAGGCGTCTG | 1
110 | ATTCCGATTT | 1.05
111 | CTTCCAGTAG | 1.4
112 | AAGCAATTCG | 2
113 | CTATTGGAAG | 0.946
114 | ATTATCTGAT | 1.01
115 | GCAGCTTAGG | 1.05
116 | GTTAACTTAG | 1.04
117 | GGGGAACTGT | 0.951
118 | CGGTCGGCTT | 0.98
119 | GGTCCTGCGT | 1.03
120 | CTACAAACAG | 1.07
121 | CCACTAGCAT | 2.63
122 | GCCAAAGTAG | 0.995
123 | AACAGACTGT | 0.929
124 | CACGTCTACT | 1.14
125 | CGGAATATTC | 1.33

Row | Sequence | switch fluorescence ratio
126 | ATGACAGATG | 1.03
127 | GGAGTTGCTT | 0.997
128 | CCTGTGAAGT | 1.03
129 | GTCTGATTGG | 0.966
130 | AACCTAATG | 1.05
131 | GGTAATTAGA | 0.988
132 | AGGTCGCGCC | 1.01
133 | TTTGCATCGC | 1.03
134 | GCGTGGCGGA | 1.04
135 | ACCGACGTGT | 1.11
136 | CGTACATATT | 1.05
137 | CAGTTTCAAT | 1.03
138 | TGGTTAATTA | 1.06
139 | TCGAAAATAG | 1.03
140 | AGCTGTGCCA | 0.933
141 | TCGTTTCGAG | 0.968
142 | TGCAGTGGCC | 1.03
143 | TTCGGTAACG | 1.04
144 | CACGGGTGAC | 1.14
145 | CGTTTTCTGC | 1.15
146 | CAGTCCAAGG | 1.04
147 | GAGTGCTTGA | 0.984
148 | CCTACGGACT | 2.23
149 | GTGTGAGAAT | 1.04
150 | GCACGGCTTT | 1.1

Row | Sequence | switch fluorescence ratio
151 | AAGACAACT | 0.99
152 | GAAGTGAACA | 1.01
153 | CGACCTCTTT | 0.979
154 | GCGACATCCG | 1.03
155 | TTTCGCTGG | 1.04
156 | AGTTGAGAA | 1.03
157 | ACCAGTCAT | 0.976
158 | ATGCTTACTT | 1.05
159 | ATTTAAGTTT | 0.974
160 | GCGAATCTGG | 0.979
161 | GATACTTTCT | 1.04
162 | CGAACCCTAC | 1.32
163 | ACCGGAAACC | 1.13
164 | AGACCTCTAC | 1.31
165 | AAGGCACACA | 1.05
166 | TTTGACAGAC | 1.14
167 | TACGGACTGC | 1.54
168 | CGATCTACTT | 1.03
169 | GTAGCTAGGT | 0.991
170 | AGCTCTGTGA | 1.04
171 | GCGAGCATGT | 0.999
172 | TTTCAGAATC | 0.993
173 | CAGAGTTACG | 1.01
174 | TCTGGTTGAT | 1
175 | GGGACCGGAC | 1.06

Row | Sequence | switch fluorescence ratio
176 | ATAAAGTCGG | 1.02
177 | GCACCAACTT | 1.09
178 | GCTAACTTGC | 1.01
179 | TGATCAGTTC | 1.07
180 | CAGCAAGTCG | 1.21
181 | ACGTTTATGC | 1.13
182 | TAATCGGCTA | 1.03
183 | TTATATCGAC | 1.1
184 | CACGCCATGT | 1.1
185 | GCAGACAGTG | 1
186 | ACATGAGTGG | 0.986
187 | CTCACGGGGT | 1.09
188 | TGTTCACCTT | 1.06
189 | GCAACGGAAA | 1.03
190 | AAGCCAGGTT | 1.05
191 | GGCTCAGCTG | 1
192 | ACTCAGGCTT | 1.11
193 | GAATTTATAA | 0.941
194 | CGTGGTCTAG | 0.997
195 | TCATGATTAA | 0.997
196 | TGACATTATG | 1.03
197 | ACCACTTACC | 1.26
198 | GTGACCAAAG | 1.02
199 | CGCATGAACT | 1.38
200 | AAAGCACACC | 1.32
